Measured values from patent publication US20240010748A1 (SHANGHAI QILU PHARMACEUTICAL RESEARCH AND DEVELOPMENT CENTRE, published 2024).
Positions count from the first letter of the chain named. In names and notes the source's numbering stands.

What was measured:
[1] = molecular target: T1, Cynomolgus macaques Claudin 18 (cynoCLDN18) on stably-transfected HEK293 cells (Cynomolgus macaques, UniProt A0A2K5VVB4 1-261); assay: FACS on HEK293-cynoCLDN18 cells
T1 chain: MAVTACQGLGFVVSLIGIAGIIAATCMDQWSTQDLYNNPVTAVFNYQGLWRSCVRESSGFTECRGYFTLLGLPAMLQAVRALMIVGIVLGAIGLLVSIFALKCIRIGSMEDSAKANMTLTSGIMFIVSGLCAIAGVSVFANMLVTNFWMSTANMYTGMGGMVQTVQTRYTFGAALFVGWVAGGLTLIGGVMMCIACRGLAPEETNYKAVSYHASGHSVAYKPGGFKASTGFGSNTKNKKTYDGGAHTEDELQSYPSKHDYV

[2] = molecular target: T2, human Claudin 18.2 (hCLDN18.2) on stably-transfected HEK293 cells (human, UniProt P56856-2 1-261); assay: FACS on HEK293-hCLDN18.2 cells
T2 construct: whole, on cells; also called CLDN18A2; HEK293-hCLDN18.2
T2 sequence (looked up): T1 chain with T240I, H246R, L251V
Procedure: (§1) The binding situation of the anti-CD3-CLDN18.2 bispecific antibodies to stably-transfected HEK293 cells expressing hCLDN18.2 (HEK293-hCLDN18.2) and T lymphocytes naturally expressing hCD3 (Jurkat) were detected by using FACS.
(§2) HEK293-hCLDN18.2 or Jurkat cells were collected and re-suspended with FACS buffer (PBS+1% BSA+0.5 mM EDTA), after adjusting the cell concentration, 1E5 cells per well were added into a 96-well plate, and then the antibody after gradient dilution was added according to the preset concentration, wherein the negative control was human IgG1AA (Negative-IgG1AA), the positive control of CLDN18.2 was antibody 6#AA, and the positive control of CD3 was antibody h160C9AA. […]

[3] = molecular target: T3, human CD3 (hCD3) naturally expressed on Jurkat cells (human, UniProt P07766); assay: cell-based or functional assay
[4] = molecular target: T2, human Claudin 18.2 (hCLDN18.2) on …; assay: cell-based or functional assay
[5] = molecular target: T2, human Claudin 18.2 (hCLDN18.2) on …; assay: cell-based or functional assay; remark: listed apart in the source
human CD3 E&D protein = molecular target: T4, human CD3 E&D protein (human, UniProt P07766 23-126; P04234 22-105); assay: SPR (Biacore 8K), CD3 E&D immobilised by amino coupling, antibody as analyte, 1:1 fit
T4 construct: Soluble CD3 epsilon and delta protein immobilised on the chip; also called Humanized CD3 E&D; humanized CD3 E&D protein
Procedure: The affinity and kinetic properties of the bispecific antibodies to human CD3 E&D proteins were determined by surface plasmon resonance (SPR) using a Biacore 8K instrument. The human CD3 E&D protein was immobilized on the experimental channel of CMS chip by amino coupling, then the antibody to be tested was subjected to doubling dilution to serial concentrations, flowed through the surfaces of an experimental channel and a reference channel successively for binding, followed by dissociation, the binding and dissociation curve of each sample was obtained, and the results were analyzed and evaluated by Biacore Insight Evaluation software.
The bispecific antibodies of the present disclosure were diluted to 400 nM with 1×HBS-EP+ (10 mM HEPES, pH 7.4, 150 mM NaCl, 3 mM EDTA, 0.05% P20) running buffer, then subjected to doubling dilution to 1.56 nM with this buffer, thus obtaining antibody solutions in a range of concentrations from 400 nM to 1.56 nM. At the end of each experiment, the chip was regenerated by washing with 3M MgCl₂ solution at a flow rate of 30 μL/min for 30 s to remove captured antibody together with antigen. The raw data were analyzed using Biacore Insight Evaluation Software (version 2.0.15.12933) with a 1:1 fit model and affinity and kinetic experimental data of the resulting bispecific antibodies were shown in Table 4.

[6] = molecular target: T3, human CD3 (hCD3) naturally expressed on …; assay: FACS on Jurkat cells
Procedure: as §1, §2

human CD3 E&D protein, sequence (P07766 23-126, chain 1 of 2): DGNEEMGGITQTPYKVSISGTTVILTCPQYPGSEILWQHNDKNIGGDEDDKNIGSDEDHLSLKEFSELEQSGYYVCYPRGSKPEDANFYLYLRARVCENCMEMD
human CD3 E&D protein, sequence (P04234 22-105, chain 2 of 2, further chain): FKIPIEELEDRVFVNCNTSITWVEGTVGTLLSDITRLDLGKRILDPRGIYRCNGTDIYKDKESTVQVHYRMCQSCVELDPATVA

EC50 [1]: 0.58 nM
MFI (Max) [1]: 28600 MFI
EC50 [2]: 0.98 nM
Top mean fluorescence intensity (Top MFI) [2]: 24200 MFI
Jurkat-NFAT luciferase reporter, EC50 [3]: 7.62 nM
Jurkat-NFAT luciferase reporter, Fluorescence value (Max) [3]: 117000
ADCC activity, EC50 [4]: 0.501 nM
ADCC activity, Maximum lysis (%) [4]: 19.9%
T cell activation, CD25+CD69+ % [5]: 38.9%
T cell activation, EC50 [5]: 0.022 nM
TDCC activity, EC50 [5]: 0.13 nM
TDCC activity, Maximum lysis (%) [5]: 54.6%
Kd (human CD3 E&D protein): 0.978 nM
koff (human CD3 E&D protein): 0.000766 s⁻¹
kon (human CD3 E&D protein): 782000 M⁻¹ s⁻¹
EC50 [6]: 14.1 nM
Top mean fluorescence intensity (Top MFI) [6]: 2020 MFI
B1: 31905-38AA (bispecific antibody, human IgG1, kappa)
heavy: QVQLVQSGAEVKKPGASVKVSCKASGYIFTNYWIHWVRQAPGQGLEWMGRIYPGTGNTYYNEKFTGRVTMTRDTSTSTVYMELSSLRSEDTAVYYCAREGYGKGNSMDYWGQGTTVTVSS[human IgG1 constant region with changes cut from this listing]
light: DIVMTQSPDSLAVSLGERVTMNCKSSQSLLNAGNQKNYLTWYQQKPGQPPKLLFYWASTRESGVPDRFSGSGSGTDFTLTISSVQAEDVAVYHCQNAYYYPYTFGGGTKLEIKRTVAAPSVFIFPPSDEQLKSGTASVVCLLNNFYPREAKVQWKVDNALQSGNSQESVTEQDSKDSTYSLSSTLTLSKADYEKHKVYACEVTHQGLSSPVTKSFNRGECGGGGSAQAVVTQEPSLTVSPGGTVTLTCRSSTGAVTTSNYANWVQQKPGQAPRGLIGGTNKRAPGTPARFSGSLLGGKAALTLSGAQPEDEAEYYCALWYSNLWVFGGGTKLTVLGGGGSGGGGSGGGGSEVKLVESGGGLVQPGGSLKLSCAASGFTFNTYAMNWVRQAPGKGLEWVARIRSKYNNYATYYADSVKDRFTISRDDAKNTLYLQMNNLRTEDTAVYYCVRHGNFGNSYVSWFAYWGQGTLVTVSS
notes: Full-length 6#AA (IgG1 Fc with L234A/L235A) with the anti-CD3 scFv of h160C9AA on the C-terminus of both light chains; also called anti-CD3-CLDN18.2 bispecific antibody; CD3 bivalent antibody
